Assay results taken from US20180312496A1, “BICYCLIC HETEROCYCLE DERIVATIVES AS BROMODOMAIN INHIBITORS” (ORION CORPORATION, priority 2015, published 2018).
pIC50: −log10 of the molar value. Some results were stated once for a whole list of compounds, not compound by compound.

molecular target: T1, Bet BRD4 bromodomain (Homo sapiens, UniProt O60885); assay: Bet bromodomain TR-FRET assay; type: binding; settings: displacement of 300 nM acetyl histone peptide substrate from Bet BRD4 bromodomain protein
T1 construct: fused on or other part: An unnamed tag, implied by the XL-665 labelled antibody used for detection

`COc1cc2c(cc1-c1c(C)noc1C)cc(NC1CCN(C)CC1)c(=O)n2Cc1ccccn1` [Compound 22, 6-(3,5-Dimethylisoxazol-4-yl)-7-methoxy-3-((1-methylpiperidin-4-yl)amino)-1-(pyridin-2-ylmethyl)quinolin-2(1H)-one] and `COc1cc2c(cc1-c1c(C)noc1C)cc(OC1CC1)c(=O)n2Cc1ccccn1` [Compound 117, 3-Cyclopropoxy-6-(3,5-dimethylisoxazol-4-yl)-7-methoxy-1-(pyridin-2-yl-methyl)quinolin-2(1H)-one] cannot be ordered by pIC50: greater than 6.22 for the first, greater than 6.22 for the second.

First: COc1cc2c(cc1-c1c(C)noc1C)cc(C(=O)Nc1cc(C)c(O)c(C)c1)c(=O)n2Cc1ncccc1OC [Compound 111, 6-(3,5-Dimethylisoxazol-4-yl)-N-(4-hydroxy-3,5-dimethylphenyl)-7-methoxy-1-((3-methoxypyridin-2-yl)methyl)-2-oxo-1,2-dihydroquinoline-3-carboxamide]
Second: COc1cc2c(cc1-c1c(C)noc1C)cc(C(=O)Nc1ccc(O)c(F)c1)c(=O)n2Cc1ccccn1 [Compound 51, 6-(3,5-Dimethylisoxazol-4-yl)-N-(3-fluoro-4-hydroxyphenyl)-7-methoxy-2-oxo-1-(pyridin-2-ylmethyl)-1,2-dihydroquinoline-3-carboxamide]
The pIC50 of the first is lower: 5.00 to 6.00 for the first, greater than 6.22 for the second. The second is the more potent here.

Compared with `COc1cc2c(cc1-c1c(C)noc1C)cc(-c1ccccc1C(F)(F)F)c(=O)n2Cc1ccccn1` [Compound 8, 6-(3,5-Dimethylisoxazol-4-yl)-7-methoxy-1-(pyridin-2-ylmethyl)-3-(2-(tri-fluoromethyl)phenyl)quinolin-2(1H)-one], `COc1cc2c(cc1-c1c(C)noc1C)cc(-c1ccccc1)c(=O)n2Cc1ccccn1` [Compound 5, 6-(3,5-Dimethylisoxazol-4-yl)-7-methoxy-3-phenyl-1-(pyridin-2-ylmethyl)-quinolin-2(1H)-one] is lower in pIC50: greater than 6.22 for the first, 6.00 to 6.22 for the second.

`COc1cc2c(cc1-c1c(C)noc1C)cc(N1CCNC1=O)c(=O)n2Cc1ccccn1` [Compound 23, 6-(3,5-Dimethylisoxazol-4-yl)-7-methoxy-3-(2-oxoimidazolidin-1-yl)-1-(pyridin-2-ylmethyl)quinolin-2(1H)-one] and `COc1cc2c(cc1-c1c(C)noc1C)cc(N1CCOCC1)c(=O)n2Cc1ccccn1` [Compound 18, 6-(3,5-Dimethylisoxazol-4-yl)-7-methoxy-3-morpholino-1-(pyridin-2-yl-methyl)quinolin-2(1H)-one] cannot be ordered by pIC50: greater than 6.22 for the first, greater than 6.22 for the second.

Compared with `COc1cc2c(cc1-c1c(C)noc1C)cc(C(=O)c1ccccc1)c(=O)n2Cc1ccccn1` [Compound 76, 3-Benzoyl-6-(3,5-dimethylisoxazol-4-yl)-7-methoxy-1-(pyridin-2-ylmethyl)-quinolin-2(1H)-one], `COc1cc2c(cc1-c1c(C)noc1C)cc(C(=O)Nc1cccnc1)c(=O)n2Cc1ccccn1` [Compound 42, 6-(3,5-Dimethylisoxazol-4-yl)-7-methoxy-2-oxo-1-(pyridin-2-ylmethyl)-N-(pyridin-3-yl)-1,2-dihydroquinoline-3-carboxamide] is higher in pIC50: 5.00 to 6.00 for the first, greater than 6.22 for the second.

`COc1cc2c(cc1-c1c(C)noc1C)cc(-c1cccnc1)c(=O)n2Cc1ccccn1` [Compound 10, 6-(3,5-Dimethylisoxazol-4-yl)-7-methoxy-1-(pyridin-2-ylmethyl)-3-(pyridin-3-yl)quinolin-2(1H)-one] and `COc1cc2c(cc1-c1c(C)noc1C)cc(-c1cn[nH]c1)c(=O)n2Cc1ccccn1` [Compound 12, 6-(3,5-Dimethylisoxazol-4-yl)-7-methoxy-3-(1H-pyrazol-4-yl)-1-(pyridin-2-ylmethyl)quinolin-2(1H)-one] cannot be ordered by pIC50: greater than 6.22 for the first, greater than 6.22 for the second.

`COc1cc2c(cc1-c1c(C)noc1C)cc(C(NCCO)C(F)(F)F)c(=O)n2Cc1ccccn1` (stereo not drawn) [Compound 71, 6-(3,5-Dimethylisoxazol-4-yl)-7-methoxy-1-(pyridin-2-ylmethyl)-3-(2,2,2-trifluoro-1-((2-hydroxyethyl)amino)ethyl)quinolin-2(1H)-one] and `COc1cc2c(cc1-c1c(C)noc1C)cc(NCCO)c(=O)n2Cc1ccccn1` [Compound 19, 6-(3,5-Dimethylisoxazol-4-yl)-3-((2-hydroxyethyl)amino)-7-methoxy-1-(pyridin-2-ylmethyl)quinolin-2(1H)-one] cannot be ordered by pIC50: greater than 6.22 for the first, greater than 6.22 for the second.

`COc1cc2c(cc1-c1c(C)noc1C)cc(C(=O)N1CCC1)c(=O)n2Cc1ccc(Cl)cc1` [Compound 84, 3-(Azetidine-1-carbonyl)-1-(4-chlorobenzyl)-6-(3,5-dimethylisoxazol-4-yl)-7-methoxyquinolin-2(1H)-one] and `COc1cc2c(cc1-c1c(C)noc1C)cc(C(=O)N1CCC1)c(=O)n2CCc1ccc(Cl)cc1` [Compound 88, 3-(Azetidine-1-carbonyl)-1-(4-chlorophenethyl)-6-(3,5-dimethyl-isoxazol-4-yl)-7-methoxyquinolin-2(1H)-one] cannot be ordered by pIC50: greater than 6.22 for the first, greater than 6.22 for the second.

`COc1cc2c(cc1-c1c(C)noc1C)cc(-c1nc3ccc(O)cc3[nH]1)c(=O)n2Cc1ccccn1` [Compound 83, 6-(3,5-Dimethylisoxazol-4-yl)-3-(6-hydroxy-1H-benzo[d]imidazol-2-yl)-7-methoxy-1-(pyridin-2-ylmethyl)quinolin-2(1H)-one] and `COc1cc2c(cc1-c1c(C)noc1C)cc(-c1c(C)noc1C)c(=O)n2Cc1ccccn1` [Compound 1, 3,6-Bis(3,5-dimethylisoxazol-4-yl)-7-methoxy-1-(pyridin-2-ylmethyl)quinolin-2(1H)-one] cannot be ordered by pIC50: greater than 6.22 for the first, greater than 6.22 for the second.

`COc1cc2c(cc1-c1c(C)noc1C)cc(C(=O)NCCCO)c(=O)n2Cc1ccccn1` [Compound 30, 6-(3,5-Dimethylisoxazol-4-yl)-N-(3-hydroxypropyl)-7-methoxy-2-oxo-1-(pyridin-2-ylmethyl)-1,2-dihydroquinoline-3-carboxamide] and `COc1cc2c(cc1-c1c(C)noc1C)cc(CC(=O)O)c(=O)n2Cc1ccccn1` [Compound 77, 2-(6-(3,5-Dimethylisoxazol-4-yl)-7-methoxy-2-oxo-1-(pyridin-2-ylmethyl)-1,2-dihydroquinolin-3-yl)acetic acid] cannot be ordered by pIC50: greater than 6.22 for the first, greater than 6.22 for the second.

`COc1cc2c(cc1-c1c(C)noc1C)cc(C(=O)Nc1ccn(C)n1)c(=O)n2Cc1ccccn1` [Compound 43, 6-(3,5-Dimethylisoxazol-4-yl)-7-methoxy-N-(1-methyl-1H-pyrazol-3-yl)-2-oxo-1-(pyridin-2-ylmethyl)-1,2-dihydroquinoline-3-carboxamide] and `COc1cc2c(cc1-c1c(C)noc1C)cc(C(=O)Nc1ccncc1)c(=O)n2Cc1ccccn1` [Compound 38, 6-(3,5-Dimethylisoxazol-4-yl)-7-methoxy-2-oxo-1-(pyridin-2-ylmethyl)-N-(pyridin-4-yl)-1,2-dihydroquinoline-3-carboxamide] cannot be ordered by pIC50: greater than 6.22 for the first, greater than 6.22 for the second.

Compared with `COc1cc2c(cc1-c1c(C)noc1C)cc(Nc1cc(C)nc(C)c1)c(=O)n2Cc1ccccn1` [Compound 107, 6-(3,5-Dimethylisoxazol-4-yl)-3-((2,6-dimethylpyridin-4-yl)amino)-7-methoxy-1-(pyridin-2-ylmethyl)quinolin-2(1H)-one], `COc1cc2c(cc1-c1c(C)noc1C)cc(C(=O)Nc1ccc(O)nc1)c(=O)n2Cc1ccccn1` [Compound 50, 6-(3,5-Dimethylisoxazol-4-yl)-N-(6-hydroxypyridin-3-yl)-7-methoxy-2-oxo-1-(pyridin-2-ylmethyl)-1,2-dihydroquinoline-3-carboxamide] is higher in pIC50: 5.00 to 6.00 for the first, greater than 6.22 for the second. The second is the more potent here.

First: COc1cc2c(cc1-c1c(C)noc1C)cc(C(=O)Nc1nnc(CO)s1)c(=O)n2Cc1ccccn1 [Compound 28, 6-(3,5-Dimethylisoxazol-4-yl)-N-(5-(hydroxymethyl)-1,3,4-thiadiazol-2-yl)-7-methoxy-2-oxo-1-(pyridin-2-ylmethyl)-1,2-dihydroquinoline-3-carboxamide]
Second: COc1cc2c(cc1-c1c(C)noc1C)cc(C(=O)Nc1ccc(C#N)cc1)c(=O)n2Cc1ccccn1 [Compound 45, N-(4-Cyanophenyl)-6-(3,5-dimethylisoxazol-4-yl)-7-methoxy-2-oxo-1-(pyridin-2-ylmethyl)-1,2-dihydroquinoline-3-carboxamide]
The pIC50 of the first is higher: greater than 6.22 for the first, 5.00 to 6.00 for the second. The first is the more potent here.

`COc1cc2c(cc1-c1c(C)noc1C)cc(C(=O)N[C@H]1CC[C@H](O)CC1)c(=O)n2Cc1ccccn1` [Compound 27] and `COc1cc2c(cc1-c1c(C)noc1C)cc(-c1cnn(CC(=O)O)c1)c(=O)n2Cc1ccccn1` [Compound 81, 2-(4-(6-(3,5-Dimethylisoxazol-4-yl)-7-methoxy-2-oxo-1-(pyridin-2-yl-methyl)-1,2-dihydroquinolin-3-yl)-1H-pyrazol-1-yl)acetic acid] cannot be ordered by pIC50: greater than 6.22 for the first, greater than 6.22 for the second.

`COc1cc2c(cc1-c1c(C)noc1C)cc(-c1ccc(N)nc1)c(=O)n2Cc1ncccc1OC` [Compound 110, 3-(6-Aminopyridin-3-yl)-6-(3,5-dimethylisoxazol-4-yl)-7-methoxy-1-((3-methoxypyridin-2-yl)methyl)quinolin-2(1H)-one] and `COc1cc2c(cc1-c1c(C)noc1C)cc(-c1nccn1-c1ccccc1)c(=O)n2Cc1ccccn1` [Compound 67, 6-(3,5-Dimethylisoxazol-4-yl)-7-methoxy-3-(1-phenyl-1H-imidazol-2-yl)-1-(pyridin-2-ylmethyl)quinolin-2(1H)-one] cannot be ordered by pIC50: greater than 6.22 for the first, greater than 6.22 for the second.

First: COc1cc2c(cc1-c1c(C)noc1C)cc(C(=O)N1CCC1)c(=O)n2CCc1cccc(Cl)c1 [Compound 97, 3-(Azetidine-1-carbonyl)-1-(3-chlorophenethyl)-6-(3,5-dimethylisoxazol-4-yl)-7-methoxyquinolin-2(1H)-one]
Second: COc1cc2c(cc1-c1c(C)noc1C)cc(C(=O)N1CCC1)c(=O)n2CCc1ccc(F)cc1 [Compound 90, 3-(Azetidine-1-carbonyl)-6-(3,5-dimethylisoxazol-4-yl)-1-(4-fluorophen-ethyl)-7-methoxyquinolin-2(1H)-one]
The pIC50 of the first is lower: 5.00 to 6.00 for the first, greater than 6.22 for the second. The second is the more potent here.

`COc1cc2c(cc1-c1c(C)noc1C)cc(-n1cnc(-c3ccccc3)c1)c(=O)n2Cc1ccccn1` [Compound 17, 6-(3,5-Dimethylisoxazol-4-yl)-7-methoxy-3-(4-phenyl-1H-imidazol-1-yl)-1-(pyridin-2-ylmethyl)quinolin-2(1H)-one] was tested, and the pIC50 was greater than 6.22.
